{
  "source": "ChEMBL document CHEMBL4888484",
  "about": "“Replenishing the malaria drug discovery pipeline: Screening and hit evaluation of the MMV Hit Generation Library 1 (HGL1) against asexual blood stage Plasmodium falciparum ,using a nano luciferase reporter read-out” (2022)",
  "note": "The campaign covered roughly 150,000 compounds. About 540 (0.36%) showed an effect of 50% or more. This is one part of the list.",
  "data": [
    {"test_system": "Plasmodium falciparum", "test": "Primary screen in NF54 nanoGlo assay, in single point, at 2uM, 72h; a lower Z score goes with more inhibition", "format": "functional, Erythrocyte", "conditions": "timepoint 72 hour", "units": {"% Inhibition": "%"}, "values": [
      {"smiles": "Cc1ccsc1C(CO)NC1CCCn2ccnc21", "note": "(stereo not drawn)", "% Inhibition": -14, "Z score": 2.1},
      {"smiles": "CN(C)c1ccc(C#N)c(NS(=O)(=O)c2ccc(CC#N)cc2)c1", "% Inhibition": -3, "Z score": 0.42},
      {"smiles": "Cc1c(Br)cc(F)cc1C(=O)N[C@@]1(CCO)CCOC1", "% Inhibition": -4, "Z score": 0.37},
      {"smiles": "O=C(NCc1ccco1)c1ccc2c(=O)n(-c3cccc(F)c3)c(N3CCOCC3)nc2c1", "% Inhibition": -14, "Z score": 2.69},
      {"smiles": "CCc1nc(C)c(-c2nc(C3CC3)nn2[C@H]2CCS(=O)(=O)C2)o1", "% Inhibition": -25, "Z score": 3.23},
      {"smiles": "Cc1ncc(CO)c(CN(C)CC2CCCC2)c1O", "% Inhibition": -9, "Z score": 0.95},
      {"smiles": "O=C(CC1CCC1)N1CCC(CF)CC1", "% Inhibition": 14, "Z score": -1.8},
      {"smiles": "O=C(NCc1ccc2c(c1)OCO2)C1CC(c2ccccc2)CN(C(=O)c2ccccc2F)C1", "note": "(stereo not drawn)", "% Inhibition": -5, "Z score": 0.5},
      {"smiles": "CC(C)C[C@H]1COCCN1C(=O)N[C@@H]1CCCN(C(=O)CCC(F)(F)F)C1", "% Inhibition": -4, "Z score": 0.74},
      {"smiles": "CCN1CCCC1CN1CC(C(=O)Nc2ccc(C)c(O)c2)CC1=O", "note": "(stereo not drawn)", "% Inhibition": -3, "Z score": 0.39},
      {"smiles": "COCCCNC(=O)C1Cc2ccc(OC)cc2N2CCN(Cc3ccc(Cl)cc3)CC12", "note": "(stereo not drawn)", "% Inhibition": -9, "Z score": 1.05},
      {"smiles": "CCc1nnc(CN(C)c2cc(C3CC3)ncn2)o1", "% Inhibition": 0, "Z score": -0.04},
      {"smiles": "CC(=O)N1CC[C@H](CNC(=O)c2cc(Cc3ccccc3)n[nH]2)C1", "% Inhibition": 8, "Z score": -1.56},
      {"smiles": "O[C@H]1CCCN(Cc2cc(Cl)c3c(c2)OCCCO3)C1", "% Inhibition": 12, "Z score": -1.6},
      {"smiles": "O=C([C@H]1CCCN(c2ncnc3c2nc2n3CCCCC2)C1)N1CCCc2ccccc21", "% Inhibition": -7, "Z score": 1.1},
      {"smiles": "O=C(CN1CCN(c2ccccc2)C1=O)N1CCC(Cc2ccccc2)CC1", "% Inhibition": -11, "Z score": 1.28},
      {"smiles": "CC(C)c1nccc(-c2nccn2Cc2cnn(-c3ccccc3)c2)n1", "% Inhibition": -9, "Z score": 1.84},
      {"smiles": "CC(=O)Nc1c(-c2ccccn2)nsc1C(=O)N1CCCCCC1", "% Inhibition": -2, "Z score": 0.23},
      {"smiles": "Cn1nc(-c2c[nH]c3ccccc23)nc1C1CCC1", "% Inhibition": -7, "Z score": 0.79},
      {"smiles": "O=C(NCc1cccnc1)c1cnn(-c2nccc(-c3ccc4c(c3)OCO4)n2)c1-c1ccco1", "% Inhibition": -6, "Z score": 0.87},
      {"smiles": "Cc1cn2c(nc1=O)OC1CC2OC1CO", "note": "(stereo not drawn)", "% Inhibition": -4, "Z score": 0.8},
      {"smiles": "COc1ccc(CNC(=O)N2CC(F)(F)C[C@H]2CN2CCCc3ccccc32)cc1", "% Inhibition": -12, "Z score": 2.13},
      {"smiles": "O=C(Cn1nc2c(=O)n(-c3ccc(Br)cc3)ccn2c1=O)Nc1ccccc1", "% Inhibition": -3, "Z score": 0.49},
      {"smiles": "CCN(CC)S(=O)(=O)c1ccc(N2CCOCC2)c(NC(=O)c2cc(S(=O)(=O)N3CCCCC3)ccc2Cl)c1", "% Inhibition": 4, "Z score": -0.53},
      {"smiles": "Cn1cc(C(=O)N(Cc2ccccc2)Cc2ccccc2)cn1", "% Inhibition": -5, "Z score": 0.68},
      {"smiles": "O=C(Nc1ccn2nccc2n1)[C@H]1CCCO1", "% Inhibition": -2, "Z score": 0.25},
      {"smiles": "Cc1cccc2[nH]cc(CCNC(=O)C(=O)Nc3ccn(CCC(N)=O)n3)c12", "% Inhibition": 5, "Z score": -0.59},
      {"smiles": "COc1cc(=O)n2c(c1C(=O)N1CCCC[C@@H]1C)CCCCC2", "% Inhibition": -4, "Z score": 0.46},
      {"smiles": "CCOc1cc2c(cc1CN(C)Cc1cnn(C)c1C)CCC2", "% Inhibition": -12, "Z score": 1.31},
      {"smiles": "Cc1cc([C@H](C)NCc2noc(C)n2)c(C)o1", "% Inhibition": -2, "Z score": 0.31},
      {"smiles": "C#CCN(C)CCCNCc1cccc(C#N)c1", "% Inhibition": 9, "Z score": -1.88},
      {"smiles": "Cc1noc([C@@H]2CCCCN2S(=O)(=O)c2ccc(-c3c(C)noc3C)s2)n1", "% Inhibition": -13, "Z score": 1.49},
      {"smiles": "O=c1c2cccc(F)c2ncn1C1CCS(=O)(=O)CC1", "% Inhibition": -13, "Z score": 1.83},
      {"smiles": "Cc1cccnc1CN1C[C@H](c2ccccc2)[C@H](C(=O)O)C1", "% Inhibition": -5, "Z score": 0.8},
      {"smiles": "CC(C)c1nc([C@H]2CCCN(C(=O)c3ccc4c(n3)CCCC4)C2)no1", "% Inhibition": -2, "Z score": 0.29},
      {"smiles": "Cc1nn(-c2nc3ccccc3s2)c2c1[C@H]1[C@@H](C2)C1(C)C", "% Inhibition": 2, "Z score": -0.4},
      {"smiles": "CN1C[C@H](c2ccc(Cl)cc2)C(C(=O)c2cccnc2)[C@]12C(=O)Nc1ccc(F)cc12", "note": "(stereo partly drawn)", "% Inhibition": 4, "Z score": -0.58},
      {"smiles": "Fc1ccc(-n2cc(-c3csc(-c4cnccn4)n3)nn2)cc1", "% Inhibition": -16, "Z score": 2.21},
      {"smiles": "CS(=O)(=O)CC1(CNC(=O)c2ccc(Br)cn2)CC1", "% Inhibition": 0, "Z score": 0.02},
      {"smiles": "CC(C)=CCN1C(=O)[C@@H]2CC[C@H]1CN(C(=O)CCc1cnn(C)c1)C2", "% Inhibition": -8, "Z score": 1.46},
      {"smiles": "CCc1nsc(N2CCC[C@@H]3O[C@H](c4ccccc4)C[C@@H]32)n1", "% Inhibition": -10, "Z score": 1.34},
      {"smiles": "Cn1cccc1C(=O)C(=O)NCc1ccc(Cl)cc1", "% Inhibition": 8, "Z score": -0.74},
      {"smiles": "N#Cc1c2n(c(=O)n(Cc3ccccc3)c1=O)CCC2", "% Inhibition": 12, "Z score": -1.35},
      {"smiles": "Cc1cc(N2C[C@H](C)C(=O)NC2=O)c(C)cc1C(C)C", "% Inhibition": -1, "Z score": 0.18},
      {"smiles": "O=C(OCC(=O)N1CCCCC1)c1cc(C2CC2)nc2ccccc12", "% Inhibition": -7, "Z score": 0.72},
      {"smiles": "O=C(CCNc1ncc(Cl)cn1)N1CCCCC1", "% Inhibition": -15, "Z score": 2.28},
      {"smiles": "O=C(c1ccccc1F)N(Cc1ccccc1Cl)[C@H]1CCS(=O)(=O)C1", "% Inhibition": -14, "Z score": 1.27},
      {"smiles": "O=C(c1ccn(CC(F)(F)F)n1)N1Cc2ccc(Br)cc2C1", "% Inhibition": -13, "Z score": 2.11},
      {"smiles": "CCCCn1nnnc1NCc1cccn1C", "% Inhibition": -4, "Z score": 0.72},
      {"smiles": "Cc1cc(-c2cc(-c3ccc[nH]3)nc(N)c2C#N)ccc1O", "% Inhibition": -6, "Z score": 1.04},
      {"smiles": "O=C(CCN(Cc1ccccc1)c1nc(-c2ccc(F)cc2)nc2ccccc12)N1CCOCC1", "% Inhibition": 4, "Z score": -0.78},
      {"smiles": "Cc1cc(O)c([C@H](c2ccccc2)N2CCC(C)CC2)c(=O)n1Cc1ccccn1", "% Inhibition": 0, "Z score": 0.05},
      {"smiles": "COCCN1CCC(CN(Cc2ccncc2)C(=O)[C@H]2C[C@H]3C=C[C@@H]2C3)CC1", "% Inhibition": -12, "Z score": 1.35},
      {"smiles": "O=C(COC(=O)c1cc(-c2ccc(-c3ccccc3)cc2)nc2ccccc12)Nc1ccccc1C(F)(F)F", "% Inhibition": -13, "Z score": 2.5}
    ]}
  ]
}
